# Measured values: PubChem BioAssay AID485297 (National Center for Advancing Translational Sciences (NCATS), 2010)
# The whole screen tested about 320,000 compounds, of which about 9,100 (2.8%) were called active. The shares of active, inactive and inconclusive entries below differ from those in the screen. Calls follow the shape of the dose curve; as a rule, active = well fitted activation curve with a large enough effect; inconclusive = small, poorly fitted or top-dose-only effect; inactive = no such curve, though single readings can be large or run the other way. No potency is given beside an inconclusive call; the fits are too rough.
# Experiment: qHTS Assay for Rab9 Promoter Activators; also: nearly all actives have a fitted effect of over 60% in size; as to activation, negative = inhibition: % of control where 0% means no effect
# Conditions: Huh7 Rab9 promoter-luciferase reporter, luminescence, 24 h; series mostly up to 9.22 µM; activation, negative = inhibition: at the top concentration
# Procedure, shortened: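 Quantitative HTS format; Huh7 Rab9-luciferase reporter cells (1500/well) receive compound 2 h post-plating, incubate 24 h at 37 °C, then get luciferase reagent for 10 min before luminescence reading.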
# Potency is read from the fitted curve at half-maximal effect; tags tell the direction and shape of the fitted curve.
SMILES,Potency,"activation, negative = inhibition"
O=C(Nc1nc2ccccc2[nH]1)c1ccccc1OC(F)F,active: 0.501 µM,–
O=C(Nc1ccccc1)c1ccc(CSc2ccccn2)cc1,active: 1.58 µM,–
Cc1occc1C(=O)NNC(=O)Nc1ccc(F)cc1F,–,inactive: -3.92%
O=C(NCC1CCCO1)C(c1ccc(F)cc1)N(Cc1ccc2c(c1)OCO2)C(=O)c1ccc(CN2CCOCC2)o1 (configuration not stated),"inconclusive [activator, single point]",–
O=C(Nc1ccccc1)C1=C[C@@H](c2ccc(Br)cc2)C[C@@H](OCCCCO)O1,"inconclusive [activator, partial curve]",–
O=C(CCCSc1nc2ccccc2s1)Nc1nccs1,"inconclusive [activator, partial curve]",–
Cn1c(SCC(=O)NC2CCCCC2)nnc1-c1cc2cc(Cl)ccc2o1,"inconclusive [activator, single point]",–
Cc1ccc(NS(=O)(=O)c2ccccc2F)cc1S(=O)(=O)N1CCCCC1,–,inactive: -1.24%
O=C(Nc1nnc(C2CCCO2)s1)c1ccc(Br)cc1 (configuration not stated),"inconclusive [activator, partial curve]",–
CNC(=O)c1c(NC(=O)c2ccco2)sc2c1CCC2,"inconclusive [activator, partial curve]",–
O=C(c1cccs1)N1CCc2ccccc21,"inconclusive [activator, full curve]",–
Fc1cccc(/C=N/Nc2ncnc3nc[nH]c23)c1,active: 3.55 µM,–
Cc1oc2nc(SCC(=O)N3CCCCC3)nc(N)c2c1C,–,inactive: 4.07%
COc1ccc(/C=C/C(=O)Nc2ccccc2C(=O)NCC(c2ccc(OC)cc2)N(C)C)cc1 (configuration not stated),–,inactive: 20.6%
O=C(CN1C(=O)CCC1=O)Nc1nc(-c2ccc3ccccc3c2)cs1,"inconclusive [activator, partial curve]",–
COc1cccc(C(=O)Cn2c(=N)n(C)c3ccccc32)c1,"inconclusive [activator, partial curve, poor fit]",–
O=C(Oc1ccc(Cl)cc1)c1ccc(COC(=O)c2cnccn2)cc1,–,inactive: -3.49%
O=C(Nc1cccc(Br)c1)c1ccn[nH]1,"inconclusive [activator, single point]",–
CCC(=O)Nc1cccc(-c2ccc(N3CCN(C)CC3)nn2)c1,"inconclusive [activator, partial curve]",–
COc1ccc(NC(=O)c2cnn(-c3ccccc3)c2C)cc1OC,"inconclusive [activator, partial curve]",–
CCN1CCN(C(=O)c2ccc3c(=O)n(CCc4ccccc4)c(=O)[nH]c3c2)CC1,"inconclusive [activator, single point]",–
O=C(CSC1=NCCS1)N1CCc2ccccc21,active: 3.98 µM,–
COc1ccccc1NC(=O)CSc1nc2nc(C)cc(C)c2c(=O)[nH]1,–,inactive: -2.56%
CCN1CCN(S(=O)(=O)c2ccc(Cl)c(C(=O)NC3CC3)c2)CC1,–,inactive: -5.45%
CCCCOc1ccc(C(=O)Nc2ccc3c(c2)OCO3)cc1,"inconclusive [activator, single point]",–
CCCOc1ccc(-c2nc(C#N)c(N3CCC(C(N)=O)CC3)o2)cc1,"inconclusive [activator, single point]",–

SMILES,Potency,"activation, negative = inhibition"
O=C(Nc1ccc([N+](=O)[O-])cc1Cl)c1cc(Cl)ccc1O,active: 0.1 µM,–
COc1ccc2oc(=O)c(C(=O)Nc3cccc(C(C)=O)c3)cc2c1,"inconclusive [activator, partial curve]",–
CC1CCN(S(=O)(=O)CCNC(=O)c2ccc(F)cc2)CC1,–,inactive: -4.98%
CN(CCO)c1ccc(/C=N/Nc2nncc3ccccc23)cc1,"inconclusive [activator, partial curve]",–
Cc1cccc(C(=O)Nc2nc3ccc(S(C)(=O)=O)cc3s2)c1,"inconclusive [activator, partial curve]",–
Cc1ccccc1S(=O)(=O)Oc1ccc2ccc(O)cc2c1,–,inactive: -3.35%
N#Cc1ccccc1NC(=O)CSc1cn[nH]n1,–,inactive: -3.65%
CCCCOC(=O)CSc1nc2c(cc1C#N)C(=O)CC(C)(C)C2,"inconclusive [activator, single point]",–
COc1cc(CNCCNC(=O)c2nonc2N)ccc1OCc1ccc(Cl)cc1,–,inactive: -7.63%
c1ccc(CSc2nnc(Cc3ccccc3)o2)cc1,"inconclusive [activator, single point]",–
COc1ccc(N(/N=C2\Sc3ccccc3C2=O)C(C)=O)cc1,"inconclusive [activator, single point]",–
COc1cc(/C=C/c2nc3ccccc3c(=O)[nH]2)ccc1OC(F)F,"inconclusive [activator, partial curve]",–
O=C(N/N=C/c1ccccn1)c1cc(C2CC2)[nH]n1,active: 1.58 µM,–
COC(=O)c1cccc(-n2sc3ccccc3c2=O)c1,"inconclusive [activator, single point]",–
Cc1[nH]c2ccc(C(=O)OC(C)C(=O)NCc3ccccc3)cc2c1C (configuration not stated),–,inactive: -20.2%
O=C(/C=C/c1cccs1)Nc1ccc(Br)cn1,"inconclusive [activator, single point]",–
CCc1ccc(NC(=O)Nc2ccon2)cc1,active: 2.51 µM,–
COc1ccccc1NC(=O)C(=O)c1cn(CC(=O)N2CCCC2)c2ccccc12,"inconclusive [activator, partial curve]",–
O=C(CSc1nnc(-c2ccc3c(c2)OCCO3)o1)N1CCCC1,active: 2.51 µM,–
COc1ccccc1-c1noc(-c2ccccc2C(=O)Nc2ccccc2)n1,–,inactive: 25.9%
CCOC(=O)COc1ccccc1C(=O)c1cnn(-c2ccccc2)c1,"inconclusive [activator, partial curve]",–
COC(=O)N/N=C/c1c[nH]c2ccccc12,–,inactive: 1.44%
O=C(COc1ccc2c(c1)OCO2)Nc1ccc(Cl)cn1,active: 3.55 µM,–
CN(CCO)c1c2c(nc3cc(-c4cccc(F)c4)nn13)CCCC2,active: 3.55 µM,–
Cc1ccc(S(=O)(=O)N2CCN(C(=O)CN3CCCCC3)C2)cc1,–,inactive: 2.54%
Cc1ccc(C)n1-c1ccc(C(=O)/C=C/N(C)C)cc1,"inconclusive [activator, partial curve, poor fit]",–

SMILES,Potency,"activation, negative = inhibition"
O=C(c1cc2ccccc2oc1=O)N1CCN(c2ncccn2)CC1,"inconclusive [activator, single point]",–
CCOC(=O)c1cnc(SC)nc1Oc1cccc(NS(=O)(=O)c2ccc(Cl)cc2)c1,–,inactive: -4.98%
Cc1cccc(N=C2NN=C(c3ccccc3F)CS2)c1C,"inconclusive [activator, partial curve]",–
O=C(CSc1cccs1)Nc1cccc2ccccc12,"inconclusive [activator, single point]",–
CC(=O)c1cccc(NC(=O)CCOc2ccccc2)c1,"inconclusive [activator, single point]",–
O=C(CCCOc1ccc(Cl)cc1)N1CCOCC1,–,inactive: -5.29% [at 1.84 µM]
Cc1ccc(C2=NN3C(C2)c2ccccc2OC32C(=O)Nc3ccccc32)cc1 (configuration not stated),"inconclusive [activator, partial curve]",–
COc1ccccc1C(=O)N(C)c1nnc(-c2ccccc2)s1,"inconclusive [activator, partial curve]",–
COc1cc(/C=C(/C#N)c2nc3ccccc3[nH]2)ccc1OC(=O)c1ccco1,"inconclusive [activator, single point]",–
Cc1ccc(/C=C/C(=O)Nc2nc3ccccc3[nH]2)cc1,active: 1.78 µM,–
CC(C)(C)c1ccc(OCCC(=O)OCC(=O)NCc2ccccc2)cc1,–,inactive: -5.54%
Cc1ccc(Cn2nnc3c(=O)n(CC(=O)OCc4ccccc4)cnc32)cc1,"inconclusive [activator, single point]",–
COc1cccc(Nc2nc(-c3cccnc3)cs2)c1,"inconclusive [activator, single point]",–
CCCCN(C(=O)C1CCCC1)c1c(N)n(CCC)c(=O)[nH]c1=O,–,inactive: -4.31%
COc1cc2c(cc1NC(=O)COC(=O)CNS(=O)(=O)c1ccc(C)cc1)oc1ccccc12,"inconclusive [activator, single point]",–
O=C(CCNc1ccccc1)c1ccc2c(c1)OCO2,active: 2.51 µM,–
COC(=O)C1=C(C)N(Cc2ccc(C)cc2)C(=O)/C1=C\c1ccc(O)c(OC)c1,"inconclusive [activator, single point]",–
O=C(CN1CCCCC1)Nc1ccc(Br)cc1[N+](=O)[O-],"inconclusive [activator, single point]",–
COc1ccc(Cl)cc1S(=O)(=O)N(C)CC(=O)N1CCCC1,"inconclusive [activator, single point]",–
COCCc1nc2ccc(C(=O)N(C)Cc3cccc(-n4cccn4)c3)cc2o1,active: 2.82 µM,–
Cc1[nH]n(-c2nc(-c3ccccc3F)cc(=O)[nH]2)c(=O)c1CCO,–,inactive: -2.69%
Cc1ccc(Nc2nc(-c3c(C)nc4ncccn34)cs2)cc1,–,inactive: -30.2%
O=C(CNC(=O)c1ccc2c(c1)OCO2)Nc1ncccc1O,"inconclusive [activator, single point]",–
O=C(Nc1nccs1)c1ccc[nH]c1=O,"inconclusive [activator, single point]",–
O=C(OCC(=O)N1CCCCCC1)c1cccs1,"inconclusive [activator, partial curve]",–
